# Measurements taken from PubChem BioAssay AID485344 (National Center for Advancing Translational Sciences (NCATS), 2010).
# In all, about 340,000 compounds went through this assay and about 6,900 (2%) were called active. Cut-off read from the data, not from the text of the source: active = inhibition above about 30%; inactive = below that, where a call was filed. This is a selection; strong and weak results do not stand in their true shares. The source gives no active or inactive call for entries shown without one.
# Biological target: D(2) dopamine receptor (Homo sapiens) (UniProt P14416)
# Experiment: HTS Assay for Allosteric Antagonists of the Human D2 Dopamine Receptor: Primary Screen for Antagonists; note: 0% is about no effect
# Conditions: HEK293 TREx D2 cells, calcium flux, dopamine EC80; at 10 µM; stronger effect = higher value
# In short: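 Dopamine at EC80 is the agonist stimulus; test compounds precede it by 180 s. Calcium flux read kinetically in a force-coupled, inducible HEK293 T-REx D2 cell line.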
# Chain of UniProt P14416 (P14416 whole entry, looked up): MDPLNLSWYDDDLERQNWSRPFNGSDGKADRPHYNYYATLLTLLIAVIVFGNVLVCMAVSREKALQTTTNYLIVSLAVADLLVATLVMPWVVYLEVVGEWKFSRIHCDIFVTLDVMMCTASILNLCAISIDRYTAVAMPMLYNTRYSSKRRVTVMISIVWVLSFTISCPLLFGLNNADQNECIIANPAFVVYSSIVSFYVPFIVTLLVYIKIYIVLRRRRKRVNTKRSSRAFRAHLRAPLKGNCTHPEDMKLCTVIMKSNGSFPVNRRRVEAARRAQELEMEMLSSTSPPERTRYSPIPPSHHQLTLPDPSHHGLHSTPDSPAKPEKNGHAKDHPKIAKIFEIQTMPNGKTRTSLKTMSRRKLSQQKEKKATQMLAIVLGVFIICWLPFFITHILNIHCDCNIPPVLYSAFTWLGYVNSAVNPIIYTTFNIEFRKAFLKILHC
row,SMILES,inhibition
1,CC(C(=O)Nc1ccccc1C(F)(F)F)n1nc(-c2ccccc2)c2c(c1=O)CCCC2 (stereo unspecified),-8.88%
2,CC(C)CC(=O)Nc1c(C(=O)N2CCN(c3ccccc3F)CC2)oc2ccccc12,-20.8%
3,Cc1cc(C)c2c(-n3cccc3)c(C(=O)NCCc3ccccc3)sc2n1,6.48%
4,CCN(CC)c1ccc(C(=O)NCc2ccc3c(c2)CCN3C(C)=O)cc1,9.96%
5,CC(=O)c1ccc(N2CCN(C(=O)Nc3cccc(F)c3)CC2)cc1,0.635%
6,COC(=O)C1=C(c2ccccc2)c2ccccc2S(=O)(=O)N1CC(=O)Nc1ccccc1C(F)(F)F,-20.8%
7,CCCCC(=O)Nc1ccc(C(=O)OCc2cc(=O)n3nc(C4CC4)sc3n2)cc1,10.1%
8,COc1ccc(S(=O)(=O)Cc2ccc(C(=O)NC3CCCCC3)o2)cc1,3.15%
9,C=CCN1CCc2nc(N)sc2CC1,active: 89.2%
10,Cc1cccc(N2CCN(c3ccc(C(=O)O)cc3NC(=O)c3ccccc3F)CC2C)c1 (stereo unspecified),-5.57%
11,Cc1cc(Cl)ccc1NC(=O)CN1C(=O)C(=O)c2ccccc21,-0.778%
12,CCOC(=O)C1CCN(Cc2cccc(OC)c2)CC1,active: 43.6%
13,CSc1cccc(NC(=O)Cn2nnc(C(=O)NCCc3ccccc3)c2N)c1,0.665%
14,CCN1CCN(C(c2ccccc2)c2c(O)cc(C)n(CCOC)c2=O)CC1 (stereo unspecified),-18.4%
15,COc1ccc(-n2nc(C(N)=O)c(O)cc2=O)cc1,active: 32.1%
16,O=C(Nc1nonc1-c1ccc(Br)cc1)c1ccco1,-13.5%
17,Cc1nc2ccccc2n1CCc1nc2c3ccccc3nc(SCC(=O)Nc3ccc(C(C)C)cc3)n2n1,-0.567%
18,COc1cccc(Cn2cc(S(=O)(=O)c3ccc(C)cc3)c(=O)c3cc4c(cc32)OCO4)c1,-17%
19,Cc1ccc(NC(=O)CSc2[nH]c(=O)ncc2C)cc1,15.8%
20,Clc1ccc(CSc2nc3ncccc3[nH]2)cc1,1.87%
21,CCCc1ccc(NC(=O)C2CCN(c3cnccn3)CC2)cc1,-4.5%
22,Cc1ccc(NC(=O)Cc2ccc(NC(=O)N3CCCCc4ccccc43)cc2)cc1,10.7%
23,CCN1CCN(CCCNC(=O)Cn2nc(C)n3c(cc4cc(C)ccc43)c2=O)CC1,-7.51%
24,COc1ccccc1N1CCN(C2CCN(C3CCC(c4ccccc4)CC3)CC2)CC1 (stereo unspecified),active: 45.1%

row,SMILES,inhibition
1,COc1ccc(OC)c(CNC(=O)C2COc3ccccc3C2)c1 (stereo unspecified),4.06%
2,COc1ccc2nc(N3CCN(C(=O)c4ccco4)CC3)sc2c1,-18.6%
3,CCc1ccc(S(=O)(=O)c2nnn3c2nc(N2CCCC(C)C2)c2cc(Cl)ccc23)cc1 (stereo unspecified),-0.647%
4,CCOC(=O)Cc1ccc(NC(=O)N2CC(CC)Oc3ccccc32)cc1 (stereo unspecified),-18.3%
5,Cc1ccc(-c2nc3c4ccccc4n(Cc4cccc(Cl)c4)c(=O)n3n2)cc1,11.9%
6,COc1ccc(N2CCN(C(=O)CCn3cnc4onc(-c5ccc(F)cc5)c4c3=O)CC2)cc1,8.98%
7,Cc1cccc(-c2nc3nc(C)cc(N4CCN(c5ccccc5)CC4)n3n2)c1,1.97%
8,COc1cccc(CNS(=O)(=O)c2ccc3c(c2)N(C)CCO3)c1,active: 38.8%
9,CC(C)(C)C1CCc2c(sc(NC(=O)c3ccncc3)c2C(=O)Nc2ccccc2Cl)C1 (stereo unspecified),-27.3%
10,COc1cccc(N2CCN(Cc3nnc(-c4ccc5c(c4)OCO5)o3)CC2)c1,2.89%
11,COc1ccc(NS(=O)(=O)c2ccc(NS(=O)(=O)c3ccc4c(c3)OCCO4)cc2)cc1,-0.712%
12,Cc1c(C(=O)NCc2ccccc2Cl)sc2nc3n(c(=O)c12)CCC3,17.7%
13,COc1ccc(S(=O)(=O)N(C)C)cc1NC(=O)Cc1cccs1,active: 34.3%
14,Cc1cc(C)cc(N2CCn3c2nc2c3c(=O)n(CCc3ccccc3)c(=O)n2C)c1,4.45%
15,COc1ccc(N(CC(=O)NCc2ccc(C)cc2)S(=O)(=O)c2c(C)[nH]c(=O)[nH]c2=O)cc1,1.8%
16,COc1ccc(Br)cc1CNC(=O)c1ccc2c(c1)nc1n2CCCCC1,-11.9%
17,Cc1cccc(CN2C(=O)c3ccccc3S(=O)(=O)c3ccc(C(=O)N4CCN(c5cc(C)ccc5C)CC4)cc32)c1,-2.38%
18,CCc1ccc(-c2cc3c(N4CCN(c5ccccc5)CC4)nccn3n2)cc1,23.6%
19,COc1cccc(C(=O)n2nc(-c3ccco3)nc2NCc2cccs2)c1,7.92%
20,CC1=C(C(=O)OCc2ccc(C)cc2)C(c2ccccc2Cl)CC(=O)N1 (stereo unspecified),-0.403%
21,CCC(C)(C)NC(=O)/C=C/c1cc(OC)c(OC)c(S(=O)(=O)N2CCc3ccccc32)c1,active: 40.9%
22,Cc1nc2c3ccccc3nc(NNC(=O)CCC(=O)N3CCN(c4ccccc4)CC3)n2n1,-6.81%
23,Cc1cccc(OCC(=O)Nc2ccc3c(c2)nc(CCNC(=O)c2ccco2)n3C)c1,-6.3%
24,CCOC(=O)c1c(C)oc2nc(C)nc(NC(C)c3ccccc3)c12 (stereo unspecified),3.23%

row,SMILES,inhibition
1,CCOC(=O)CNC(=O)CSc1nnc(-c2ccco2)n1N,active: 34.3%
2,CCCNC(=O)CCC(=O)N1Cc2ccccc2Oc2ncccc21,-6.39%
3,COc1ccccc1N1CCN(C(=O)C2CC=CCC2C(=O)O)CC1 (stereo unspecified),active: 32.9%
4,COc1ccc(C(=O)CN2C(=O)N(c3cc(C)ccc3C)S(=O)(=O)c3ccccc32)cc1,14.2%
5,CCc1ccccc1NC(=O)C1CCN(C2=NS(=O)(=O)C(c3ccc(C)c(C)c3)=C2C)CC1,0.69%
6,Cc1cc(C)cc(NC(=O)c2sc3nc(-c4cc5ccccc5oc4=O)[nH]c(=O)c3c2C)c1,15.1%
7,COC(=O)c1c(C)sc(-c2c(-c3cccc(Cl)c3)[nH]c3c2c(=O)[nH]c(=O)n3C)c1O,-5.61%
8,COc1ccc(CCNC(=O)CCc2c(C)nc3c(c(C)nn3-c3ccccc3)c2C)c(OC)c1,-20%
9,COc1ccc(-c2noc(N3CCN(c4cccc(C)c4C)CC3)n2)cc1OC,-5.74%
10,COc1ccccc1C(=O)Nc1nnc(SCc2cc(=O)n3ccc(C)cc3n2)s1,-0.884%
11,CCc1cccc(C)c1NC(=O)C(C)Sc1nc2c(c(=O)[nH]1)CCCC2 (stereo unspecified),25.3%
12,Cc1cccc(N2CCN(C(=O)c3oc(=O)c4ccccc4c3-c3ccccc3)CC2)c1C,-7.26%
13,Cc1ccc(C(=O)Nc2ccc(OCc3cc(=O)n4c5c(sc4n3)CCCC5)cc2)cc1,22%
14,S=c1[nH]nc(Cc2c[nH]c3ccccc23)o1,active: 41.4%
15,Cc1c(NC(=O)c2ccc(N3CCC(C)CC3)c([N+](=O)[O-])c2)cccc1-c1nc2ccccc2o1,-2.84%
16,Cc1cc(NC(=O)Nc2csc3c2CCCC3)ccc1Br,-14.8%
17,COCCCNC(=O)C1CCC(Cn2c(=O)c3sccc3n(Cc3ccc(F)cc3)c2=O)CC1 (stereo unspecified),0.174%
18,COc1ccc(CCN2C(=O)N(c3ccc(F)cc3)C(=O)C2CC(=O)Nc2ccc(F)c(F)c2)cc1 (stereo unspecified),6.53%
19,CCOc1ccc(N(CC(=O)NCc2ccc(Cl)cc2)S(=O)(=O)c2c(C)noc2C)cc1,-2.95%
20,CCCc1ccc(OCC(O)CN2CCN(c3ccccc3)CC2)cc1 (stereo unspecified),active: 68.7%
21,O=C(CSc1n[nH]c(-c2ccccc2Cl)n1)N1CCN(c2ccccc2F)CC1,-3.36%
22,CC1=C(C(=O)Nc2cccnc2)C(c2ccccc2)n2nc(SCc3ccccc3F)nc2N1 (stereo unspecified),-4.37%
23,Cc1oc(-c2ccc(C(=O)NCc3ccccc3)cc2)nc1CS(=O)(=O)c1ccccc1,-8.12%
24,COc1ccc(-c2coc3c2c(C)cc2oc(=O)cc(C)c23)cc1,-6.5%

row,SMILES,inhibition
1,O=C(NC1CCCC1)c1ccc2c(c1)N(Cc1ccccc1F)C(=O)c1ccccc1S2,-4.66%
2,Cc1ccccc1NC(=O)CN1C(=O)CCn2nc(-c3cccn3C)cc21,-10.2%
3,CCCCn1c(-c2ccc(C)cc2)c(C)n2c3c(=O)n(C)c(=O)n(C)c3nc12,-19.6%
4,Cc1ccc(OCCCCn2c(CCNC(=O)C(C)(C)C)nc3ccccc32)cc1,2.21%
5,Cc1ccc(S(=O)(=O)N2CCC(C(=O)NCCc3ccccn3)CC2)cc1,active: 42.6%
6,Cc1ccccc1-c1noc(CSc2nnc(-c3ccncc3)n2-c2ccc(F)cc2)n1,-11.7%
7,Cc1ncc(CO)c2c1Oc1nc(-c3ccccc3)nc(SCC(=O)Nc3cccc(C(F)(F)F)c3)c1C2,-8.92%
8,CCn1cc(C(=O)NCc2ccccc2Cl)c(=O)c2cc(S(=O)(=O)N3CCCCC3)ccc21,3.58%
9,CSc1ncc(C(=O)N2CCN(c3ccc(F)cc3)CC2)c(C)n1,-15.6%
10,Cc1ccc(C)c(N2CCN(C(=O)c3cc(S(=O)(=O)N4CCCC4)cn3C)CC2)c1,-10%
11,COc1ccccc1CCNC(=O)Cn1ccc2cc(S(=O)(=O)N3CCCCCC3)ccc21,-9.5%
12,CCc1nnc(SCc2nc(-c3ccc(OC)cc3)oc2C)c2cc3sccc3n12,6.83%
13,COc1cccc(-c2nn(C)c3sc(C(=O)N4CCN(c5cccc(C)c5)C(C)C4)cc23)c1 (stereo unspecified),-2.97%
14,CCOC(=O)C1CCC(CN(Cc2c(Cl)cccc2Cl)S(=O)(=O)c2ccc(F)cc2)CC1 (stereo unspecified),27.7%
15,Cc1cccc(C(=O)Nc2nc(-c3ccc(Br)cc3)ns2)c1,-9.02%
16,COc1cc(C(=O)N2CCc3c([nH]c4ccccc34)C2c2ccccc2)cc(OC)c1OC (stereo unspecified),0.635%
17,CCOC(=O)C1CCN(C(=O)Cn2ncc3c([nH]c4ccc(C)cc43)c2=O)CC1,-2.44%
18,CC(=O)N1CCC2(CC1)OC(=O)C(C)=C2C(=O)Nc1ccccc1C(F)(F)F,5.17%
19,COc1ccccc1OCCn1c(-c2ccc(Br)cc2)nc2ccccc2c1=O,-20.5%
20,Cc1cccc(N(CC(=O)NCCSc2ccc(Cl)cc2)S(=O)(=O)c2ccccc2)c1C,-12.3%
21,Cc1ccc2c(c1)N(C(=O)N1CCC(C(=O)NCc3ccco3)CC1)CC(C)O2 (stereo unspecified),-1.65%
22,CCCCOC(=O)c1ccc(NC(=O)Cc2coc3ccc(C(C)C)cc23)cc1,14.3%
23,CCc1ccc(OCC(=O)NCc2nc(-c3cccc(C)c3)no2)c(Br)c1,17%
24,COc1ccc(N2CCN(C(=O)c3ccc4c(c3)CCN4S(C)(=O)=O)CC2)cc1,6.27%
